Data: US11261211B2, “19-NOR neuroactive steroids and methods of use thereof” (Sage Therapeutics, Inc., priority 2013, dated 2022)
At least one compound was matched to its structure with a doubt left.

Each molecule was assayed against rat brain cortical membranes ([35S]-TBPS binding, GABA receptor complex) (assay: Steroid inhibition of [35S]-TBPS binding). Settings: 3 nM [35S]-TBPS, in the presence of 5 μM GABA.
Experimental: TBPS binding assays using rat brain cortical membranes in the presence of 5 μM GABA has been described (Gee et al, J. Pharmacol. Exp. Ther. 1987, 241, 346-353; Hawkinson et al, Mol. Pharmacol. 1994, 46, 977-985; Lewin, A. H et al., Mol. Pharmacol. 1989, 35, 189-194).
Briefly, cortices are rapidly removed following decapitation of carbon dioxide-anesthetized Sprague-Dawley rats (200-250 g). The cortices are homogenized in 10 volumes of ice-cold 0.32 M sucrose using a glass/teflon homogenizer and centrifuged at 1500×g for 10 min at 4° C. The resultant supernatants are centrifuged at 10,000×g for 20 min at 4° C. to obtain the P2 pellets. The P2 pellets are resuspended in 200 mM NaCl/50 mM Na-K phosphate pH 7.4 buffer and centrifuged at 10,000×g for 10 min at 4° C. This washing procedure is repeated twice and the pellets are resuspended in 10 volumes of buffer. Aliquots (100 μL) of the membrane suspensions are incubated with 3 nM [^35S]-TBPS and 5 μL aliquots of test drug dissolved in dimethyl sulfoxide (DMSO) (final 0.5%) in the presence of 5 μM GABA. The incubation is brought to a final volume of 1.0 mL with buffer. […] Following a 90 min incubation at room temp, the assays are terminated by filtration through glass fiber filters (Schleicher and Schuell No. 32) using a cell harvester (Brandel) and rinsed three times with ice-cold buffer. Filter bound radioactivity is measured by liquid scintillation spectrometry. Non-linear curve fitting of the overall data for each drug averaged for each concentration is done using Prism (GraphPad).
Various compounds are or can be screened to determine their potential as modulators of [^35S]-TBPS binding in vitro. These assays are or can be performed in accordance with the above discussed procedures.
`C[C@@]1(O)CC[C@H]2[C@H](CC[C@@H]3[C@@H]2CC[C@]2(C)[C@@H](C(=O)Cn4nnc5ccccc54)CC[C@@H]32)C1` [SA-1] was tested, and the IC50 was 10 to 50 nM. `C[C@@]1(O)CC[C@H]2[C@H](CC[C@@H]3[C@@H]2CC[C@]2(C)[C@@H](C(=O)Cn4nc5ccccc5n4)CC[C@@H]32)C1` [SA-2] was tested, and the IC50 was < 10 nM. With `C[C@@]1(O)CC[C@H]2[C@H](CC[C@@H]3[C@@H]2CC[C@]2(C)[C@@H](C(=O)Cn4ncc5ncccc54)CC[C@@H]32)C1` [SA-3] the IC50 was 10 to 50 nM. `C[C@@]1(O)CC[C@H]2[C@H](CC[C@@H]3[C@@H]2CC[C@]2(C)[C@@H](C(=O)Cn4cc5ncccc5n4)CC[C@@H]32)C1` [SA-4] was tested, and the IC50 was < 10 nM. `C[C@@]1(O)CC[C@H]2[C@H](CC[C@@H]3[C@@H]2CC[C@]2(C)[C@@H](C(=O)Cn4ncc5ccccc54)CC[C@@H]32)C1` [SA-5] gave an IC50 of 10 to 50 nM. Molecule `C[C@@]1(O)CC[C@H]2[C@H](CC[C@@H]3[C@@H]2CC[C@]2(C)[C@@H](C(=O)Cn4cc5ccccc5n4)CC[C@@H]32)C1` [SA-6] has an IC50 of 10 to 50 nM. `C[C@@]1(O)CC[C@H]2[C@H](CC[C@@H]3[C@@H]2CC[C@]2(C)[C@@H](C(=O)Cn4cc5c(n4)CCCC5)CC[C@@H]32)C1` [SA-7] gave an IC50 of 10 to 50 nM. For `C[C@@]1(O)CC[C@H]2[C@H](CC[C@@H]3[C@@H]2CC[C@]2(C)[C@@H](C(=O)Cn4ncc5c4CCCC5)CC[C@@H]32)C1` [SA-8], the IC50 was 10 to 50 nM. `C[C@@]1(O)CC[C@H]2[C@H](CC[C@@H]3[C@@H]2CC[C@]2(C)[C@@H](C(=O)Cn4cc5cnccc5n4)CC[C@@H]32)C1` [SA-10] showed an IC50 of 10 to 50 nM. `C[C@@]1(O)CC[C@H]2[C@H](CC[C@@H]3[C@@H]2CC[C@]2(C)[C@@H](C(=O)Cn4nc5ccncc5n4)CC[C@@H]32)C1` [SA-11] was tested, and the IC50 was < 10 nM. `C[C@@]1(O)CC[C@H]2[C@H](CC[C@@H]3[C@@H]2CC[C@]2(C)[C@@H](C(=O)Cn4nnc5cnccc54)CC[C@@H]32)C1` [SA-12] gave an IC50 of 10 to 50 nM. In the case of `C[C@@]1(O)CC[C@H]2[C@H](CC[C@@H]3[C@@H]2CC[C@]2(C)[C@@H](C(=O)Cn4nnc5ncccc54)CC[C@@H]32)C1` [SA-13], the IC50 is reported as 10 to 50 nM. With `C[C@@]1(O)CC[C@H]2[C@H](CC[C@@H]3[C@@H]2CC[C@]2(C)[C@@H](C(=O)Cn4nc5cccnc5n4)CC[C@@H]32)C1` [SA-14] the IC50 was < 10 nM. With `C[C@@]1(O)CC[C@H]2[C@H](CC[C@@H]3[C@@H]2CC[C@]2(C)[C@@H](C(=O)Cn4nnc5cccnc54)CC[C@@H]32)C1` [SA-15] the IC50 was < 10 nM. `C[C@@]1(O)CC[C@H]2[C@H](CC[C@@H]3[C@@H]2CC[C@]2(C)[C@@H](C(=O)Cn4cc5cc(F)ccc5n4)CC[C@@H]32)C1` [SA-16] gave an IC50 of 10 to 50 nM. Molecule `C[C@@]1(O)CC[C@H]2[C@H](CC[C@@H]3[C@@H]2CC[C@]2(C)[C@@H](C(=O)Cn4ncc5cc(F)ccc54)CC[C@@H]32)C1` [SA-17] has an IC50 of 10 to 50 nM. In the case of `C[C@@]1(O)CC[C@H]2[C@H](CC[C@@H]3[C@@H]2CC[C@]2(C)[C@@H](C(=O)Cn4cc5cccnc5n4)CC[C@@H]32)C1` [SA-18], the IC50 is reported as 10 to 50 nM. `C[C@@]1(O)CC[C@H]2[C@H](CC[C@@H]3[C@@H]2CC[C@]2(C)[C@@H](C(=O)Cn4ncc5cccnc54)CC[C@@H]32)C1` [SA-19] showed an IC50 of 10 to 50 nM. Work on `C[C@@]1(O)CC[C@H]2[C@H](CC[C@@H]3[C@@H]2CC[C@]2(C)[C@@H](C(=O)Cn4cc5ccncc5n4)CC[C@@H]32)C1` [SA-20] yielded an IC50 of 10 to 50 nM. `C[C@@]1(O)CC[C@H]2[C@H](CC[C@@H]3[C@@H]2CC[C@]2(C)[C@@H](C(=O)Cn4ncc5ccncc54)CC[C@@H]32)C1` [SA-21] showed an IC50 of 10 to 50 nM. `C[C@@]1(O)CC[C@H]2[C@H](CC[C@@H]3[C@@H]2CC[C@]2(C)[C@@H](C(=O)Cn4cc5ccc(F)cc5n4)CC[C@@H]32)C1` [SA-22] gave an IC50 of 10 to 50 nM. In the case of `C[C@@]1(O)CC[C@H]2[C@H](CC[C@@H]3[C@@H]2CC[C@]2(C)[C@@H](C(=O)Cn4ncc5ccc(F)cc54)CC[C@@H]32)C1` [SA-23], the IC50 is reported as 10 to 50 nM. In the case of `C[C@@]1(O)CC[C@H]2[C@H](CC[C@@H]3[C@@H]2CC[C@]2(C)[C@@H](C(=O)Cn4ncc5cc(Cl)ncc54)CC[C@@H]32)C1` [SA-31], the IC50 is reported as > 500 nM. `C[C@@]1(O)CC[C@H]2[C@H](CC[C@@H]3[C@@H]2CC[C@]2(C)[C@@H](C(=O)Cn4nnc5ccc(Cl)cc54)CC[C@@H]32)C1` [SA-39] was tested, and the IC50 was < 10 nM. `C[C@@]1(O)CC[C@H]2[C@H](CC[C@@H]3[C@@H]2CC[C@]2(C)[C@@H](C(=O)Cn4nnc5cc(Cl)ccc54)CC[C@@H]32)C1` [SA-40] gave an IC50 of 10 to 50 nM. Work on `C[C@@]1(O)CC[C@H]2[C@H](CC[C@@H]3[C@@H]2CC[C@]2(C)[C@@H](C(=O)Cn4nc5ccccc5c4O)CC[C@@H]32)C1` [SA-54] yielded an IC50 of 10 to 50 nM. `C[C@@]1(O)CC[C@H]2[C@H](CC[C@@H]3[C@@H]2CC[C@]2(C)[C@@H](C(=O)Cn4nc(Cl)c5ccccc54)CC[C@@H]32)C1` [SA-55] was tested, and the IC50 was < 10 nM. Work on `C[C@@]1(O)CC[C@H]2[C@H](CC[C@@H]3[C@@H]2CC[C@]2(C)[C@@H](C(=O)Cn4nnc5ncc(Cl)cc54)CC[C@@H]32)C1` [SA-56] yielded an IC50 of 10 to 50 nM. With `C[C@@]1(O)CC[C@H]2[C@H](CC[C@@H]3[C@@H]2CC[C@]2(C)[C@@H](C(=O)Cn4nc5cc(Cl)cnc5n4)CC[C@@H]32)C1` [SA-57] the IC50 was < 10 nM. With `C[C@@]1(O)CC[C@H]2[C@H](CC[C@@H]3[C@@H]2CC[C@]2(C)[C@@H](C(=O)Cn4nnc5cc(Cl)cnc54)CC[C@@H]32)C1` [SA-58] the IC50 was < 10 nM. `C[C@@]1(O)CC[C@H]2[C@H](CC[C@@H]3[C@@H]2CC[C@]2(C)[C@@H](C(=O)Cn4nnc5cc(OC(F)(F)F)ccc54)CC[C@@H]32)C1` [SA-70] showed an IC50 of 50 to 100 nM. `C[C@@]1(O)CC[C@H]2[C@H](CC[C@@H]3[C@@H]2CC[C@]2(C)[C@@H](C(=O)Cn4nnc5ccc(OC(F)(F)F)cc54)CC[C@@H]32)C1` [SA-71] gave an IC50 of 50 to 100 nM. With `C[C@]12CC[C@H]3[C@@H](CC[C@@H]4C[C@@](O)(CF)CC[C@@H]43)[C@@H]1CC[C@@H]2C(=O)Cn1cc2ncccc2n1` [SA-83] the IC50 was 50 to 100 nM. With `C[C@]12CC[C@H]3[C@@H](CC[C@@H]4C[C@@](O)(CF)CC[C@@H]43)[C@@H]1CC[C@@H]2C(=O)Cn1ncc2ncccc21` [SA-84] the IC50 was 50 to 100 nM. In the case of `C[C@]12CC[C@H]3[C@@H](CC[C@@H]4C[C@@](O)(CF)CC[C@@H]43)[C@@H]1CC[C@@H]2C(=O)Cn1nnc2cc(F)ccc21` [SA-87], the IC50 is reported as 100 to 500 nM. `C[C@]12CC[C@H]3[C@@H](CC[C@@H]4C[C@@](O)(CF)CC[C@@H]43)[C@@H]1CC[C@@H]2C(=O)Cn1nnc2ccc(F)cc21` [SA-88] gave an IC50 of 100 to 500 nM. Work on `C[C@]12CC[C@H]3[C@@H](CC[C@@H]4C[C@@](O)(C(F)F)CC[C@@H]43)[C@@H]1CC[C@@H]2C(=O)Cn1ncc2ccncc21` [SA-100] yielded an IC50 of 100 to 500 nM. With `C[C@]12CC[C@H]3[C@@H](CC[C@@H]4C[C@@](O)(C(F)F)CC[C@@H]43)[C@@H]1CC[C@@H]2C(=O)Cn1nnc2cc(F)ccc21` [SA-102] the IC50 was > 500 nM. `C[C@]12CC[C@H]3[C@@H](CC[C@@H]4C[C@@](O)(C(F)F)CC[C@@H]43)[C@@H]1CC[C@@H]2C(=O)Cn1nnc2ccc(F)cc21` [SA-103] was tested, and the IC50 was > 500 nM. Work on `Cn1c(CC(=O)[C@H]2CC[C@H]3[C@@H]4CC[C@@H]5C[C@](C)(O)CC[C@@H]5[C@H]4CC[C@]23C)nc2ccccc21` [SA-105] yielded an IC50 of 10 to 50 nM. `C[C@@]1(O)CC[C@H]2[C@H](CC[C@@H]3[C@@H]2CC[C@]2(C)[C@@H](C(=O)Cc4nccc5ccccc45)CC[C@@H]32)C1` [SA-106] showed an IC50 of 100 to 500 nM. For `CC[C@@]1(O)CC[C@H]2[C@H](CC[C@@H]3[C@@H]2CC[C@]2(C)[C@@H](C(=O)Cn4nnc5cc(F)ccc54)CC[C@@H]32)C1` [SA-107], the IC50 was > 500 nM.
